Screen size: about 300,000 compounds; about 2,300 (0.77%) were called active. The shares of active, inactive and inconclusive entries below differ from those in the screen.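 The calls were made as follows: active = mean activation of at least 80% with every replicate also reaching 80%; inconclusive = mean reaches 80% but some replicate falls short; inactive = the rest.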
Experiment: MITF-driven TRPM1 luciferase induction in melanoma cells – cell-based, SK-MEL-5, single point, primary screen (AID 588334);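 also: 0% = neutral control wells and 100% = parthenolide positive control wells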
Conditions: SK-MEL-5 TRPM1-promoter luciferase, 24 h; at 12.5 µM; active compounds read high; % of positive control, neutral wells = 0

Row | Structure (SMILES) | activation
1 | N/C(Cc1cccs1)=N\OC(=O)COc1ccc(Cl)cc1Cl | inconclusive: 83.2%
2 | Nn1c(SCc2ccccc2)nc2ccccc21 | inconclusive: 83.6%
3 | CN(C)S(=O)(=O)c1cccc(NC(=O)c2ccc3c(c2)OCCO3)c1 | inconclusive: 85.2%
4 | C/C(=N\NC(=O)c1cccc(O)c1)c1ccc(NC(=O)Cc2ccccc2)cc1 | inconclusive: 85.3%
5 | C/C(=C\C(=O)c1ccccc1)Nc1cccc(O)c1 | inconclusive: 81.5%
6 | O=C1CC(c2ccccc2)c2c(O)cc(O)cc2O1 (centres undefined) | inactive: -9.45%
7 | Cc1ccc(NC(=S)NNC(=O)c2nn(C)c(C)c2Cl)cc1 | inconclusive: 85.9%
8 | c1ccc(-c2ccc(-c3cnc4n3CCCCC4)cc2)cc1 | inconclusive: 81.6%
9 | CC(C)(C)n1cnc2cc(NC(=O)c3cccs3)ccc21 | inconclusive: 83.9%
10 | Cc1ccc(-c2cc(-c3ccc(C)cc3O)[nH]n2)cc1 | inconclusive: 89.9%
11 | COc1ccc(-n2nnnc2SCC(=O)N2CCOCC2)cc1 | inactive: -8.1%
12 | Cc1cnn(-c2cc(Oc3ccccc3)ncn2)c1 | inconclusive: 90.1%
13 | O=[N+]([O-])c1ccc(COc2ccc(CN3CCCCC3)cc2)cc1 | inconclusive: 83.4%
14 | Fc1ccc(OCc2nnc(-c3ccccc3Br)o2)c(Cl)c1 | inconclusive: 83.5%
15 | NS(=O)(=O)c1ccc(CNC(=O)c2ccc3ccccc3n2)cc1 | inactive: 3.78%
16 | Cc1cccc(NC(=O)Nc2ccc3c(c2)CCC3)c1 | inconclusive: 81.4%
17 | O=C1c2ccccc2C(=O)N1Nc1ccccc1 | inactive: -2.13%
18 | CCCCCCCNC1=CC(=O)CC(c2ccccc2)C1 (centres undefined) | inactive: 3.89%
19 | CCN1/C(=C/c2cc[n+](C)cc2)C=Cc2cc(C)ccc21 | inactive: -69.1%
20 | CC(=O)Cn1nnc2sc3c(c2c1=O)CCC(C(C)(C)C)C3 (centres undefined) | inconclusive: 80.4%
21 | O=C(c1cc2cc(Br)ccc2[nH]1)N1CCc2ccccc21 | inactive: 15.2%
22 | COc1ccc(C(=O)NCCc2ccccc2)cc1OC | inconclusive: 182%
23 | Cc1nn2c(-c3ccccc3)ccnc2c1-c1ccccc1 | inconclusive: 88.3%
24 | COc1ccc(NS(=O)(=O)c2ccc(N/N=C(\C)c3ccncc3)c([N+](=O)[O-])c2)cc1 | inactive: -18.7%
25 | COc1cccc(-c2ncc3ccccc3c2COC(=O)N2CCOCC2)c1 | inactive: 41.1%

Row | Structure (SMILES) | activation
26 | O=C(Nc1cccnc1)c1ccc(CSc2ccccc2)cc1 | inconclusive: 80.4%
27 | CC(C)(C)c1ccc(C(=O)NCCc2ccccc2)cc1 | inconclusive: 80.3%
28 | CNc1nc(-c2ccc([N+](=O)[O-])cc2)cs1 | active: 90.2%
29 | CCOc1ccc(NC(=O)c2ccccc2-c2ccccc2C(=O)O)cc1 | active: 84.5%
30 | CCOC(=O)c1cccc(-c2c(-c3ccccc3)ncc3cc(OC)c(OC)cc23)c1 | active: 97.4%
31 | Cn1c(CNC(=O)c2ccccc2F)cc2ccccc21 | inactive: -9.92%
32 | COc1ccc(-c2csc(NCc3ccco3)n2)cc1C | inconclusive: 87.5%
33 | O=C(Nc1cccnc1)c1scc2c1OCCO2 | inactive: -9.41%
34 | Cc1ccc2oc(-c3ccc(NC(=O)CC(C)C)cc3)nc2c1 | active: 101%
35 | C/C(=C\C(=O)Nc1nccs1)c1ccccc1 | inconclusive: 81.3%
36 | Cc1c(N=N/C(C(=O)Nc2ccccc2)=C(/O)c2ccccc2)c(=O)n(-c2ccccc2)n1C | inconclusive: 261%
37 | CC1CC1C(=O)OCC(=O)NC(=O)NC12CC3CC(CC(C3)C1)C2 (centres undefined) | inconclusive: 80.9%
38 | Nc1ccccc1N=Nc1ccccc1N | inconclusive: 80%
39 | CCn1ncc(CN2CCC(C(=O)Nc3cccc(-c4cccc(F)c4)c3)CC2)c1C | inactive: -2.01%
40 | N#Cc1cc2c(nc1SCc1ccncc1)CCC2 | inactive: 36%
41 | CC1(C)Cc2c(sc3nc(-c4cc5ccccc5o4)n(N)c(=O)c23)CO1 | active: 129%
42 | O=C(CNC(=O)c1ccc(Cl)cc1)c1ccc(Cl)cc1 | inactive: 56.9%
43 | COc1cc([N+](=O)[O-])ccc1N=Nc1c(N)[nH]n(-c2ccccc2)c1=O | inactive: 5.03%
44 | O/N=C(/CCc1ccccc1)c1ccc2c(c1)OCCO2 | active: 92.3%
45 | COC(=O)/C(=C1\Oc2ccc(C(C)(C)C)cc2S1)C(F)(F)F | inconclusive: 87%
46 | c1ccc2c(c1)nc1n2CCN1CCNC1CCCCC1 | inconclusive: 109%
47 | CN(C)S(=O)(=O)c1ccc(NC(=O)c2ccccn2)cc1 | inconclusive: 119%
48 | C/C(=C\c1ccccc1)C(=O)Nc1cc(C)on1 | inconclusive: 82.5%
49 | CCCc1ccc(OCc2nc(-c3ccc(NC(=O)c4cccs4)cc3)no2)cc1 | active: 94%
50 | CC1(C(=O)Nc2nc3ccccc3s2)CC1(Br)Br (centres undefined) | active: 82.9%

Row | Structure (SMILES) | activation
51 | Cc1occc1C(=O)N/N=C/C=C/c1ccccc1 | inconclusive: 85.3%
52 | CC(NC(=O)c1cc(COc2c(F)cccc2F)on1)c1cnn(-c2ccccc2)c1 (centres undefined) | inconclusive: 82.3%
53 | O=[N+]([O-])c1ccc(/C=N/Nc2nc3ccccc3o2)cc1 | inconclusive: 89.5%
54 | CCc1ccc(NC(=S)N2CCCCCCC2)cc1 | inconclusive: 82.5%
55 | Cc1ccc2nc(Cl)c(/C=N/NC(=O)c3ccccc3O)cc2c1 | inactive: 2.54%
56 | O=C(Nc1nnc(-c2ccc(F)cc2)s1)c1ccco1 | active: 106%
57 | Cc1ccc(Nc2cccccc2=O)cc1 | inconclusive: 81.8%
58 | C=CCN=C1S/C(=C\c2ccc(N(C)C)cc2)C(=O)N1CC=C | active: 99.4%
59 | O=C(Nc1ccc(Br)cc1F)c1ccc2nsnc2c1 | active: 129%
60 | CCOC(=O)c1sc(=NC(=O)c2ccccc2Br)n(C)c1C | inconclusive: 88.8%
61 | CCc1sc(C(=O)Nc2ccc3c(c2)OCO3)cc1C | active: 124%
62 | Cc1cccc(NC(=O)/C(C#N)=C/c2ccccc2O)n1 | inconclusive: 80.8%
63 | Cc1cccc(COCC(CC(C)C)N2CCN(C(=O)c3ccc(C(F)(F)F)cc3)CCC2=O)c1 (centres undefined) | inactive: -2.74%
64 | Cc1cc(=O)c(C(=O)c2ccccc2)c(C)o1 | inactive: -6.88%
65 | Cc1ccccc1C(=O)Nc1ccc(N2CCCC2)cc1 | inconclusive: 80.3%
66 | COc1ccccc1NC(=O)Nc1nnc(C(C)C)s1 | inconclusive: 85.5%
67 | Cn1cccc1-c1nc2ccc([N+](=O)[O-])cc2[nH]1 | active: 99.5%
68 | Nc1n[nH]c(N)c1N=Nc1cccc(F)c1 | inactive: 33.3%
69 | O=C(Nc1ccccc1)N1CCN(c2ccccc2)CC1 | inactive: 14.8%
70 | CSc1ccc(/C=N/n2c(C)cc(C)cc2=O)cc1 | active: 86.5%
71 | CC1CCN(C(=O)CSCc2ccc(Cl)cc2)CC1 | inconclusive: 83.9%
72 | CC1CCCCN1C(=O)CSc1nnc(-c2ccccc2F)o1 (centres undefined) | inconclusive: 80.4%
73 | O=[N+]([O-])c1ccc2nc(N3CCCC3)sc2c1 | inconclusive: 87.2%
74 | Cc1ccc(O)c(-n2nc3ccccc3n2)c1 | inconclusive: 81.2%
75 | Cc1ccc(-c2cc(C(=O)N3CCN(c4ccccc4O)CC3)c3ccccc3n2)o1 | inconclusive: 85%

Row | Structure (SMILES) | activation
76 | O=C(N/N=C/c1ccccc1C(=O)O)c1ccc(COc2cccc3cccnc23)cc1 | inactive: -4.24%
77 | COc1ccc(CNC(=O)c2cccc(N3CCCC3=O)c2)cc1 | inactive: -5.74%
78 | O=C(O)c1cc(N/N=C/C=C/c2ccccc2)ccc1Cl | inconclusive: 85.9%
79 | COCCNC(=O)c1ccc2c3n(nc2c1)-c1ccc(C)cc1CO3 | inconclusive: 83.7%
80 | C[C@@H]1CCCCCCCCC(=O)OCCN[C@H](C)CCCCCCCCC(=O)OCCN[C@H](C)CCCCCCCCC(=O)OCCN1 | inactive: -60.4%
81 | C[C@]12CS(=O)(=O)C[C@H]1SC(=S)N2c1ccccc1 | inactive: -5.8%
82 | Cn1ccnc1SCC(=O)Nc1ccc(Oc2ccccc2)cc1 | inconclusive: 81.3%
83 | CCCCc1nc2cc(C(=O)N3CCCC(OCCC)C3)ccc2o1 (centres undefined) | inconclusive: 81.5%
84 | Cc1ccc(C)c(OCc2cc(C(=O)N3CC[C@H](O)C3)no2)c1 | active: 132%
85 | COc1cccc(C(=O)Nc2nnc(-c3ccccc3)s2)c1 | inconclusive: 83.4%
86 | Cc1cc(C)c2nc(NC(=O)C3CC(=O)N(Cc4ccco4)C3)sc2c1 (centres undefined) | inactive: 4.07%
87 | Cc1cc(OCc2cc(C(=O)N3CCCCCC3)no2)cc(C)c1Cl | inconclusive: 81.2%
88 | COc1ccc(CC(NC(C)=O)C(=O)NC2CCN(C(=O)c3cccc(Cl)c3)CC2)cc1OC (centres undefined) | inactive: 4.66%
89 | COc1cccc(-c2ccc3ncnc(NCc4cc(C)cs4)c3c2)c1 | inactive: 0.529%
90 | CCC(=O)Nc1sc(C(=O)Nc2ccccc2F)c(C)c1C(=O)OC | inconclusive: 80.9%
91 | O=C(COc1ccc(F)cc1)Nc1nccs1 | inconclusive: 91.8%
92 | O=S(=O)(c1ccc(Cl)c(Cl)c1)c1snnc1-c1ccccc1 | inactive: -87.6%
93 | CCN(CC(=O)Nc1ccccc1C(F)(F)F)C(=O)/C=C/c1ccc(Cl)c([N+](=O)[O-])c1 | inactive: -11.1%
94 | COc1ccccc1Nc1nc2ccccc2n1C | active: 92.2%
95 | Cn1c(SCc2ccc(C#N)cc2Cl)nc2ccccc21 | inconclusive: 85.2%
96 | COC(=O)c1ccc(COc2ccc(C)c(C)c2)o1 | inconclusive: 85.8%
97 | COc1ccccc1NC(=O)Cn1nnc(-c2ccccc2NC(=O)c2cc3ccccc3oc2=O)n1 | inactive: 38.2%
98 | O=C(/C=C/c1cccs1)Nc1ccncc1 | inactive: 41.5%
99 | CCCc1cc(C(=O)Nc2ccc(C(=O)OC)cc2)cs1 | inconclusive: 83.6%

— PubChem BioAssay AID588334 (Broad Institute, 2011)
